The supplement of paper PMC11417369
Some of the results follow.

test system: PfHDP1 homeodomain (GST-tagged); experiment: gcPBM binding intensity (ln(normalized median fluorescence intensity)); higher = stronger DNA binding
How it was run: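 Binding intensity values are the highest Masliner-normalised natural-log median intensity among replicate spots of either probe orientation. The binding step lasted 1 h in 1× PBS with 1% milk, 0.2 mg/ml BSA, 0.5% salmon testes DNA and 0.03% Triton X-100, using GST-tagged P. falciparum DNA-binding domains expressed in E. coli on an Agilent 4 × 180k array of primer-extended double-stranded 36-bp intergenic genomic probes plus negative controls. Alexa488 anti-GST antibody and a 488 nm scan detected bound protein.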

| Sequence | gcPBM binding intensity (ln) |
| --- | --- |
| CATTCAAAGAAAAACTGTACGTGTAGCAAACGTCAT [XGTACX_site2576] | 6.95 |
| TTCTTTTTAAATTACACACACATATATATCTGTATA [CACACA_site5863] | 7.19 |
| TCATTATTAATATGTAGTACATTATATGATATGTAT [XGTACX_site8978] | 6.42 |
| ATGAACATACAATATACACACATATAGATTTATATT [CACACA_site6524] | 6.77 |
| TAAAGGATTTTCGAAGCATGCCACCTGTGACATACT [TGCATGCA_site130] | 5.85 |
| ATATTGTATTATCTTTATGTACCAAAAAAAAAAAAA [CACACA_negctrl_site1036] | 6.26 |
| ATATCAATATAAAGTACACACTATAGTATGTATTAT [CACACA_site5286] | 6.65 |
| ATTATTAATAATTGTGTGCACAAATATTTATATGCT | 10.6 |
| TAGTTAATATGAAAAAGTACACGTTTCAGTGAAAGT [XGTACX_site7402] | 6.53 |
| ATATATACATATGGGTGTACATATGCACATATATAT [XGTACX_site8437] | 9.03 |
| TTTAAAATAAATATTACACACAAAATATTAAAAAGC [CACACA_site2129] | 6.76 |
| AAAAAAAAAAAAACTTGTACATGTGATATTATCTAT [XGTACX_site6169] | 6.38 |
| ATTTAATACATACATTCACACACACTAATTGTATAT [CACACA_site9361] | 6.98 |
| TCAAAGTAGGCTTATATGCACACTTTGAAATATTAT [CACACA_site1920] | 9.35 |
| TTAAATGTTCTATATACATGCAATGATATGTTTCTG [TGCATGCA_site317] | 6.04 |
| AAATTAATATAAATATGTACATAAATAATAAAATAT [XGTACX_site6131] | 6.63 |
| GTTTTCCTTCCCTTTCCCCCTCAAAAAAAGGGAACA [TGCATGCA_negctrl_site436] | 7.36 |
| AAGGAATAAAGAAGTTGTACATAATTTGTATCATCC [XGTACX_site3891] | 6.63 |
| ATTTTTCAAACTTTAGTGCAATGAAAGAAAGAAAAA | 8.93 |

| Sequence | gcPBM binding intensity (ln) |
| --- | --- |
| GGAGGTTGTTATAAAAGTACAAAAAGTTGCAATTTT [XGTACX_site7351] | 10.7 |
| TAAAATTTTTTATTCACACAAATATAGTTATATATA [CACACA_site5348] | 6.13 |
| ATAAGAAGGAACATAAATATATCATAAAAAAAAAAA [GTGCAC_negctrl_site169] | 6.39 |
| ATAACACAAAAAGGGGGTACAATAAAAAAAAAAAAA [XGTACX_site1652] | 6.97 |
| TATTTATATAGGTATACACACATACAAATATGTAAA [CACACA_site7705] | 6.45 |
| AATACCTATAATACAACACACAAGTAATATAAACCT [CACACA_site7661] | 6.81 |
| TCATTATATACAATATGTACATATATGTAATAAACA [XGTACX_site4611] | 6.77 |
| AAAGAATTCATTATTTGTACTTAAATAAATAAATAA [XGTACX_site5932] | 6.23 |
| AGAAAGAAAGAATACACACACACATATATATATATC [CACACA_site3744] | 6.95 |
| AGCACACGCAGACACACACACACACGCACACGCACA [CACACA_site6306] | 7.07 |
| AAAGGATATGCTTCATATATATATTGTTATATATGT [CACACA_negctrl_site1672] | 6.21 |
| TAGATAAAATGAACATGTACTCATCTTAATATATAT [XGTACX_site34] | 6.23 |
| CAATATGGAAAATAAAGTACGCACACAAAAATTCTC [XGTACX_site4793] | 7.29 |
| TACACCCACATATATATACACACTTTTATTTAAATA [CACACA_site1596] | 7.08 |
| AAAAAAAATAATGTTGCACACAACAACAAACAAAAA [CACACA_site3290] | 9.19 |
| AATATATATATATGTGCACACATATATAATATGTAT [CACACA_site716] | 9.79 |
| ATACTATAATATAAAACACACATATGTACCTTCTAA [CACACA_site7323] | 6.67 |
| ATTATTTAAATTTAACGTACGGAATAAGACATAGAT [XGTACX_site8622] | 7.71 |
| TAGTAACTTGTATTCACACAAATTATATTATATTAC [CACACA_site5041] | 6.56 |

| Sequence | gcPBM binding intensity (ln) |
| --- | --- |
| TATATAATATATAAATGTACTTTTGTCTTATATGAA [XGTACX_site7211] | 6.32 |
| TTTTTTTTTTTTTTTTTTTTACAGAAAAATATTAAA [CACACA_negctrl_site128] | 5.99 |
| AATCATTAAAGCATAATGTTTATGATCAATATGAAA [CACACA_negctrl_site887] | 6.26 |
| TTCAGGTAATAACATTGTACATGTGTATCATAATTA [XGTACX_site6740] | 6.62 |
| TTATTCTAAAAATATACACACAACAACAAACAAACA [CACACA_site1543] | 7.31 |
| ATGTGTTTCTTCAATTGTACTAAAAGGTATATATTG [XGTACX_site4608] | 6.68 |
| ACAAACAAATAAATATGTACGAATAAATAAAATTTT [XGTACX_site4664] | 6.32 |
| CTTTTAGAATAATCAGTGCAAAAAAAAAAAAAAAAA | 9.04 |
| TTTTTTTTCAAAAATACAAAAAAAAAAGAAAAAAAC [CACACA_negctrl_site625] | 6.2 |
| GAAATATTACAAAGTACATGCAACGAAAATTTCAGT [TGCATGCA_site608] | 6.99 |
| GATAATACATAAATTTATAAGTGGAAGAATAAATAA [CACACA_negctrl_site698] | 6.84 |
| TAATTTTTTTAAGAGAGTACATGACTCAACAGTTTA [XGTACX_site3103] | 5.98 |
| TTTCATAAATAATAAAATAAAATATGAAGCAAAAGG [CACACA_negctrl_site1767] | 6.75 |
| TTATATCCAACTTGAAAAAAGGTATATGTTTATATA [CACACA_negctrl_site1746] | 6.11 |
| TTTTTTTTTTTTTGGAGTACATGTTTATAACATAAT [XGTACX_site1799] | 6.46 |
| TGCTCTAATTTATATACACACAAATATGTACACATA [CACACA_site7845] | 7.09 |
| TATTTTTGTATATATTTATTCTTATTTTACAGGAAA [TGCATGCA_negctrl_site472] | 6.22 |
| AACAAAAATAGAAACACACATACATTGGTTTTCTTT [CACACA_site2534] | 6.13 |
